# According to PubChem BioAssay AID743279 (National Center for Advancing Translational Sciences (NCATS), 2014):
# Out of some 360,000 compounds screened, about 17,000 (4.7%) were called active. Inconclusive means that the source gave no clear call. Such entries were picked first, then a sample of the others. Rule as the data show it: active = activity change below about -50%; inconclusive = mostly about -30% to -49%; inactive = weaker than that.
# Test: qHTS for Inhibitors of Inflammasome Signaling: IL-1-beta AlphaLISA Primary Screen
# Conditions: THP-1 LPS/ATP IL-1B secretion, 16 h; at 57.5 µM, active compounds read low
# How it was run: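 Secreted IL-1B measured by AlphaLISA bead assay after 16 h compound exposure of THP-1 cells; compounds (final up to 57.5 uM) added 1 h before LPS (250 ng/mL) and ATP (1.25 mM) stimulation; lower signal means less secretion.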
# % is scaled to controls: 0 for no effect and ±100 for the full control effect.
row,SMILES,activity change
1,CC1=C(C(=O)OCC(C)C)C(c2cccs2)NC(=S)N1 (centres undefined),inconclusive: -31.2%
2,COc1ccc(N(CC(=O)N/N=C/c2ccc(OC)c(OC)c2)S(=O)(=O)c2ccccc2)cc1,inconclusive: -31.5%
3,COC(=O)N1C(=O)[C@@](Cc2ccccc2)(c2ccccc2)N1C(=O)OC,active: -95.1%
4,O=C(CCCN1C(=O)/C(=C/c2ccccc2Cl)SC1=S)N1CCOCC1,inconclusive: -38.1%
5,COc1ccccc1C(=O)Nc1nc(-c2ccc(S(=O)(=O)N3CCOCC3)cc2)cs1,inconclusive: -45.1%
6,Cc1cc2nc(C(C)(C)C)c(Cc3ccsc3)n2c(C)c1Br,inactive: 68.6%
7,COc1ccccc1C(=O)O/N=C1/CCCc2c1ccc(OC)c2[N+](=O)[O-],inactive: -21.3%
8,COc1ccc(NC(=O)NC2CCCCCCC2)cc1OC,inactive: -0.573%
9,COc1cc(OC)cc(-c2nnc(NC(=O)CCS(=O)(=O)c3ccccc3)o2)c1,active: -72.4%
10,Cc1ccc(NC(=O)Cc2ccsc2)cc1S(=O)(=O)N1CCOCC1,inactive: 8.76%
11,O=C(c1ccccc1Br)N1CCN(Cc2ccc3c(c2)OCO3)CC1,inconclusive: -44.6%
12,CCN(CC)CCn1c2c(c(SCC(=O)Nc3nc4ccccc4s3)nc1=O)CCC2,active: -99.4%
13,O=C(c1ccc(F)cc1)c1cn(Cc2ccc(F)cc2)c2cc3c(cc2c1=O)OCCO3,inconclusive: -35.1%
14,O=C(NC(Cc1ccccc1)c1nc2ccccc2[nH]1)c1ccc(Cl)c([N+](=O)[O-])c1 (centres undefined),active: -165%
15,Cc1nnc(-c2cccc(Br)c2)c2cn(-c3ccccc3)nc12,inconclusive: -36.3%
16,CCc1ccc2[nH]c(=O)c(CN(CCCN3CCOCC3)C(=O)Nc3ccc(Cl)cc3)cc2c1,inconclusive: -35.5%
17,CCC(C)c1ccc(OCCn2ccnc2)cc1 (centres undefined),inconclusive: -30.1%
18,CCCCN(C(=O)CSCc1c(C)noc1C)c1c(N)n(CCCC)c(=O)[nH]c1=O,inactive: 12.8%
19,O=C(C1CCCN(c2ncnc3c2nc2n3CCCCC2)C1)N1CCN(c2cccc(Cl)c2)CC1 (centres undefined),inconclusive: -44.2%
20,C[C@@H]1CN([C@H](C)CO)C(=O)Cc2cc(NS(=O)(=O)c3ccc(Cl)cc3)ccc2O[C@H]1CN(C)Cc1ccc(C(F)(F)F)cc1,inconclusive: -39.9%
21,c1ccc(-c2nnc(C(c3ccccc3)c3ccccc3)o2)cc1,inactive: -8.69%

row,SMILES,activity change
1,COC(=O)c1cc(NC(=O)COC(=O)CN2C(=O)C3CC=CCC3C2=O)cc(C(=O)OC)c1 (centres undefined),inconclusive: -34.5%
2,COc1ccccc1NC(=O)CCNS(=O)(=O)c1ccc2c(c1)CC(C)N2C(=O)C1CC1 (centres undefined),inactive: 0%
3,C[C@H]1CCC/C=C/[C@@H]2C[C@H](O)C[C@H]2[C@H](O)[C@H](S(=O)c2ccc(O)cc2)CC(=O)O1 (some centres undefined),inconclusive: -37.2%
4,Cc1cccc(C)c1OCc1cc(C(=O)N2CCC(c3ccncc3)CC2)no1,active: -67.8%
5,CCN(CC)CCN(C(=O)CCS(=O)(=O)c1ccccc1)c1nc2cc3c(cc2s1)OCO3,inconclusive: -37.7%
6,Cc1ccc(/C=N/N2CCN(Cc3cccc4ccccc34)CC2)o1,inconclusive: -30.5%
7,O=C(C1CCCCC1)N1CCC(CO)(Cc2ccccc2Cl)CC1,inconclusive: -35.7%
8,COc1ccc(-c2cn(Cc3ccc(C(=O)NCc4ccc(C)cc4)cc3)c(C(C)N)n2)cc1 (centres undefined),inconclusive: -36.8%
9,Cc1ccc2cc(C#N)c(N3CCCN(S(=O)(=O)c4ccccc4)CC3)nc2c1C,inactive: 21.8%
10,CCn1c(SCC(=O)Nc2ccc(F)cc2)nc2ccccc2c1=O,inconclusive: -34.1%
11,COc1ccc(Cc2nc3ccc(C(=O)NCCc4cccc(C)n4)cc3o2)cc1,inactive: -26%
12,Cc1cc(=O)oc2c(C)c(OCC(=O)N3CCN(c4ccc(F)cc4)CC3)ccc12,inactive: 27.2%
13,C=CCc1cc(Cl)ccc1OCCOCCN(C)C,inconclusive: -37.8%
14,CCO[C@H]1OC(C(=O)N2CCN(Cc3ccccc3)CC2)=C[C@@H](C2CCCCC2)[C@@H]1CCCO,active: -60.2%
15,O=C1CC2(CCN(C(=O)c3cccc(Cl)c3)CC2)Oc2ccccc21,inconclusive: -33.5%
16,CCOC(=O)N1CCN(S(=O)(=O)c2ccc(C(=O)Nc3sc4c(c3C(=O)OC)CCN(C)C4)cc2)CC1,active: -99.9%
17,COc1ccc(CCN(C)C(=O)c2ccc3c(=O)n4c(nc3c2)CCCCC4)cc1OC,inconclusive: -31.2%
18,Cc1ccc(SCC(=O)Nc2ccc(S(=O)(=O)Nc3ncccn3)cc2)cc1,inactive: 4.86%
19,Cc1cc(OCCCCNC(C)C)cc(C(C)C)c1,inactive: -10.1%
20,Cc1ccc(C(C)(C)C)c(OCCCn2ccnc2)c1,inactive: -26.1%
21,CN(CC(=O)Nc1ccc(Cl)cc1)C(=O)c1cccc(S(=O)(=O)N2CCN(Cc3ccccc3)CC2)c1,inconclusive: -33.8%

row,SMILES,activity change
1,CCc1nc(N)nc(N)c1-c1ccc(N(C)Cc2ccccc2)c([N+](=O)[O-])c1,active: -97.8%
2,CCN(Cc1cnn(C)c1)C(=O)c1cc(COc2ccc(F)cc2F)on1,inconclusive: -30.7%
3,COc1ccc(/C=N/NC(=O)c2cc3c(ccc4ccccc43)o2)c(OC)c1,inconclusive: -46.9%
4,Cc1cc(C)c2cc(CNC3CCCC3)c(Cl)nc2c1,inconclusive: -37.6%
5,CC(=O)N1CCN(c2ccc(NC(=O)COc3ccc(Cl)cc3Cl)cc2)CC1,inconclusive: -41.9%
6,COc1ccccc1C(CNC(=O)CNC(=O)c1ccc(C)c(C)c1)N1CCCC1 (centres undefined),inactive: -26%
7,Cc1ccc(S(=O)(=O)N2CCC(n3nnc4cc(C)ccc43)CC2)cc1,inactive: 14.4%
8,Clc1ccccc1-c1nnc2sc(-c3ccc(Br)o3)nn12,active: -51.5%
9,COCCn1c(SCc2csc(-c3ccccc3)n2)nc2ccccc21,inconclusive: -30.9%
10,COc1ccc(C(c2nnnn2C2CCCC2)N2CCc3ccccc3C2)cc1OC (centres undefined),inconclusive: -30.2%
11,C=CCn1cccc(C(=O)Nc2ccc(N(C)C)cc2)c1=O,inactive: 0%
12,COc1ccccc1N(C)S(=O)(=O)c1ccc(C(=O)Nc2cc(F)ccc2C)cc1,inconclusive: -38.6%
13,Cc1ccccc1OCCCCCn1ccnc1,inconclusive: -38.1%
14,OC(COc1ccc(Cl)c2ccccc12)CN1CCN(c2ccccn2)CC1 (centres undefined),inactive: -12.4%
15,COc1cccc(C2C3=C(CC(C)(C)CC3=O)Nc3cc4c(cc32)OCO4)c1 (centres undefined),inconclusive: -41.5%
16,CN1C(N)=NC(=O)/C1=C\c1ccc(Br)cc1,inconclusive: -34.5%
17,Cc1ccc(CN(C)C(=O)c2cc(COc3cccc(C(F)(F)F)c3)on2)o1,inconclusive: -41.4%
18,COc1ccc(OC)c2c(C)cc(NCCN3CCOCC3)nc12,inconclusive: -41.8%
19,O=C(CSc1nc(C2CC2)nc2ccccc12)N1c2ccccc2Sc2ccc(C(F)(F)F)cc21,inconclusive: -37.7%
20,C=CS(=O)(=O)N(Cc1ccccc1)[C@H](CO)CC(C)C,active: -60.5%
21,O=C(CNc1cccc(S(=O)(=O)N2CCCC2)c1)Nc1ccc(C(F)(F)F)cc1,inconclusive: -36.2%

row,SMILES,activity change
1,N#Cc1cnc(Sc2ccccc2)nc1,inconclusive: -47.5%
2,COc1ccc(/C=C2\C(=O)ON=C2c2ccccc2)cc1,inconclusive: -34.2%
3,Cc1cc(C)c2[nH]c(=O)c(CN(Cc3ccco3)C(=S)NCC3CCCO3)cc2c1 (centres undefined),inactive: -2.43%
4,CN(C)CCCN(Cc1ccccc1)C(=S)Nc1ccc(F)c(Cl)c1,inconclusive: -37.3%
5,CSc1ccccc1NC(=O)c1cc(-c2cccnc2)nc2ccc(Br)cc12,inconclusive: -38%
6,O=C(NCCc1ccccc1)c1c(F)c(F)c(F)c(F)c1F,inconclusive: -37.9%
7,O=C(Nc1nc(-c2cccs2)cs1)c1ccc(S(=O)(=O)N2CCCCC2)cc1,inconclusive: -35.3%
8,Cc1cccc2cc(CN(C(=S)NCC(C)C)C3CCCC3)c(=O)[nH]c12,inconclusive: -36.1%
9,O=C(CCOc1ccccc1)Nc1ccc([N+](=O)[O-])cc1,inconclusive: -46.5%
10,COC(=O)[C@@]12CCCCN1[C@H](c1ccc(-c3cccc(Cl)c3)c(OC)c1)[C@@H]1C(=O)N(C)C(=O)[C@@H]12,inconclusive: -49.1%
11,COc1ccc(NC(=O)CN(C)C(=O)c2cccc(S(=O)(=O)N3CCN(c4ccccc4)CC3)c2)cc1,inconclusive: -30.8%
12,COc1ccccc1/C=C1\SC(=O)N(CCC(=O)N2CCCCC2CCO)C1=O (centres undefined),inconclusive: -39.8%
13,O=C1[C@H](Cc2ccccc2)NCC=CC[C@@H](c2ccc(Cl)cc2)N1Cc1ccccc1,inconclusive: -33.6%
14,COc1ccc(CNC(=O)c2c(F)c(F)c(F)c(F)c2F)cc1,inconclusive: -33.1%
15,COc1ccc2cc(CN(CC3COCCO3)S(=O)(=O)c3ccc(Cl)cc3)c(=O)[nH]c2c1 (centres undefined),inconclusive: -39.1%
16,COc1cc2nc(NC(=O)c3ccc(F)cc3Cl)sc(=O)c2cc1OC,inconclusive: -34.7%
17,C/C(=N\NC(=O)c1ccccc1)C1C2C=CC(C2)C1(C)C (centres undefined),inconclusive: -49.8%
18,O=P(c1ccccc1)(c1ccccc1)C1CCCO1 (centres undefined),inconclusive: -38.5%
19,NC(=S)NN=C1c2ccccc2-c2c(F)c(F)c(F)c(F)c21,active: -111%
20,Cc1cc(NC(=O)C(C)SCC(=O)N(Cc2ccccc2)c2ccccc2)no1 (centres undefined),inactive: 5.29%
21,Cc1ccc2nc(CCc3nc4ccc(C)cc4[nH]3)[nH]c2c1,inconclusive: -32.3%
